Source: PubChem BioAssay AID504332 (National Center for Advancing Translational Sciences (NCATS), 2011)
“And” between values parts separate entries of the source, which are not always exact repeats. Identical values can stand only once. The whole screen tested about 350,000 compounds, of which about 31,000 (8.9%) were called active. This list was built around the results that the source calls inconclusive (neither active nor inactive); the mix of calls is not that of the screen. The call rests on the fitted dose curve; in most records, active means well fitted inhibition curve with a large enough effect; inconclusive means small, poorly fitted or top-dose-only effect; inactive means no such curve, though single readings can be large or run the other way. Potencies of inconclusive entries are doubtful fits and often do not repeat. More than one record can exist for a structure, and the calls need not agree.

biological target: Histone-lysine N-methyltransferase EHMT2 (Homo sapiens) (UniProt Q96KQ7); experiment: qHTS Assay for Inhibitors of Histone Lysine Methyltransferase G9a; settings: G9a H3K9 monomethylation, AlphaScreen, 2 h; activity, negative = inhibition: at 59 µM (top of the series) unless noted; further: nearly all actives have a fitted effect of over 75% in size
Summary of the method: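 Step 1: enzyme (final 20 nM) with compound, 15 min RT. Step 2: substrate peptide 500 nM and SAM 20 uM, 2 h RT. Step 3: anti-H3K9me1 antibody and AlphaScreen beads, 10 min, then plate read.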
On the % scale 0 is the no-effect control and ±100 the full control effect; potency means the concentration at half of the fitted maximal effect; tags describe the fitted curve by direction and shape.

Sequence of UniProt Q96KQ7 (Q96KQ7 whole entry, looked up): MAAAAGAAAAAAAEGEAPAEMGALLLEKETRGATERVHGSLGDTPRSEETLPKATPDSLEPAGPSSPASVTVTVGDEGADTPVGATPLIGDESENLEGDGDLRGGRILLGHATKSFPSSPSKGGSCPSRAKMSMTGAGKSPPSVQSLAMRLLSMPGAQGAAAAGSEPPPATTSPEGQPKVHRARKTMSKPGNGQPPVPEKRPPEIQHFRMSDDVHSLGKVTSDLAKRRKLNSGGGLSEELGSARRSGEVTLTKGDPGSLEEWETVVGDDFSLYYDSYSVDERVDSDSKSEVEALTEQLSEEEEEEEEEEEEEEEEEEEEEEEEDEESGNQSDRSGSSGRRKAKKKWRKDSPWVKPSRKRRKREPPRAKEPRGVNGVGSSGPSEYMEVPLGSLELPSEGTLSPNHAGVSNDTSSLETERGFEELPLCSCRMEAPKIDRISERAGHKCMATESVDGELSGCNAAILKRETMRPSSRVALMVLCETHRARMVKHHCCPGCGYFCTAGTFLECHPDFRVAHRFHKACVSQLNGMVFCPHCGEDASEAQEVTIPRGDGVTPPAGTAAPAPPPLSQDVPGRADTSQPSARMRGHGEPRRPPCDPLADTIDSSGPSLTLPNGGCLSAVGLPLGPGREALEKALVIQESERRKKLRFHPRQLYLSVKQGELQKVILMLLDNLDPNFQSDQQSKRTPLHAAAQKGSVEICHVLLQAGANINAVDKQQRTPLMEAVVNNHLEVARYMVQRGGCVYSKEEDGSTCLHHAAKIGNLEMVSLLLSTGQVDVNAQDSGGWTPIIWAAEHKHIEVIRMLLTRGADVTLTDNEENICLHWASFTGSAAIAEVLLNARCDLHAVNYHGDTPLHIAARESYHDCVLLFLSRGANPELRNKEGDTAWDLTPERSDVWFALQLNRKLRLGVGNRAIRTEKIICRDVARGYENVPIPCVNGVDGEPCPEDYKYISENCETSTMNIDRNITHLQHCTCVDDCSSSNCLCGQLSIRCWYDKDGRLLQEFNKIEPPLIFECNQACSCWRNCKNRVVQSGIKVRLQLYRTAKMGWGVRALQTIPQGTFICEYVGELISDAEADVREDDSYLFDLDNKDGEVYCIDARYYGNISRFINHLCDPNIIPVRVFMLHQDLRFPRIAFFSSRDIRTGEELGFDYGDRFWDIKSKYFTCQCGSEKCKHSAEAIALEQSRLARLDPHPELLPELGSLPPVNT

Row | Structure (SMILES) | Potency | activity, negative = inhibition
1 | CCC(=O)Nc1ccccc1-c1nc2ccccc2n(C(CC)C(=O)Nc2cccc(Cl)c2)c1=O (stereo not given) | inconclusive: 35.5 µM [inhibitor, partial curve, poor fit] | 
2 | CN1/C(=C\C=C2C(=O)NC(=S)NC2=O)C(C)(C)c2ccccc21 | inconclusive: 44.7 µM [inhibitor, partial curve] | 
3 | Fc1ccc(CNCCc2ccccc2)cc1 | inconclusive: 14.1 µM [inhibitor, partial curve, poor fit] | 
4 | O=C(N/N=C/c1c(O)n(CCC2=CCCCC2)c(=S)[nH]c1=O)c1ccccc1 | inconclusive: 25.1 µM [inhibitor, single point] | 
5 | O=C(NCCSc1c(-c2ccccc2)[nH]c2ccccc12)c1ccc(S(=O)(=O)N2CCOCC2)cc1 | inconclusive: 4.47 µM [inhibitor, single point] | 
6 | CC(=NCCN1CCCCC1)c1c(O)n(Cc2ccccc2)c(=O)[nH]c1=O | active: 39.8 µM | 
7 | COc1ccc(Cc2nccc3cc(OC)c(OC)cc23)cc1OC | inactive and active: 5.62 µM | 
8 | C=Cn1c(P(=S)(N2CCOCC2)N2CCOCC2)cc2c1CCCC2 | inconclusive: 89.1 µM [inhibitor, single point] | 
9 | O=C(O)[C@H]1C[C@@H]1[C@H](NP(=O)(c1ccccc1)c1ccccc1)c1ccccc1 | inconclusive: 89.1 µM [inhibitor, single point] | 
10 | COC(=O)c1ccc(N=C(c2ccccc2)c2c(O)n(C)c(=O)n(C)c2=O)cc1 | inconclusive: 28.2 µM [inhibitor, single point] | 
11 | CN(C)CCCN=Cc1c(O)n(Cc2ccco2)c(=O)[nH]c1=O | inconclusive: 39.8 µM [inhibitor, partial curve, poor fit] | 
12 | CN(C)CC1CCCCC1=O (stereo not given) | inactive | 
13 | O=c1[nH]c(=O)n(CCC2=CCCCC2)c(O)c1/C=N/Nc1cccc2ccccc12 | active: 1.78 µM | 
14 | O=C(O)Cn1cc(/C=C2\C(=O)NC(=O)N(c3ccc(Br)cc3)C2=O)c2ccccc21 | active: 56.2 µM | 
15 | COc1cc2c(cc1OC)[C@H](C)NCC2 | inactive | 
16 | O=c1[nH]c(=S)n(CCC2=CCCCC2)c(O)c1C=NCCCn1ccnc1 | inconclusive: 100 µM [inhibitor, single point] | 
17 | CC(C(=O)c1ccc2ccccc2c1)N1CCCCC1 (stereo not given) | inactive | 
18 | O=C(c1ccc(F)cc1)N1CCC(N2CCCCCC2)CC1 | active: 17.8 µM | 
19 | O=C1NC(=O)C(=Cc2coc3ccccc3c2=O)C(=O)N1 | active: 35.5 µM | 
20 | Clc1ccc(OCC#CCN2CCCC2)cc1 | active: 7.94 µM | 
21 | CCC(=NCCc1c[nH]c2ccccc12)c1c(O)n(C)c(=O)n(C)c1=O | inconclusive: 31.6 µM [inhibitor, single point] | 
22 | COC(=O)N(c1ccc(OC)cc1)P1(=S)OCCC(C)O1 (stereo not given) | inconclusive: 1 µM [inhibitor, full curve, poor fit] | 

Row | Structure (SMILES) | Potency | activity, negative = inhibition
23 | O=C(c1cccc(Cl)c1)C1CCCN(Cc2cccc3cnccc23)C1 (stereo not given) | inconclusive: 50.1 µM [inhibitor, partial curve] | 
24 | COc1ccc(CCNCc2cccn2C)cc1 | inconclusive: 89.1 µM [inhibitor, single point] | 
25 | O=C(NC(=O)c1c(F)cccc1F)Nc1cc(Cl)c(OC(F)(F)C(F)C(F)(F)F)cc1Cl (stereo not given) |  | inactive: -33.2% [at 2.33 µM] and inactive: 1.41% [at 12.7 µM]
26 | O=[N+]([O-])c1ccc2c(c1)C(c1ccccc1)=NCCN2 | inconclusive: 0.141 µM [inhibitor, partial curve, poor fit] | 
27 | CCOC(=O)c1cc2c(cn1)[nH]c1ccccc12 | inconclusive: 39.8 µM [inhibitor, single point] | 
28 | COc1cc(C)c(CNCCc2c[nH]c3ccccc23)cc1C | inconclusive: 89.1 µM [inhibitor, single point] | 
29 | CCn1c(O)c(C=NCCN2CCOCC2)c(=O)[nH]c1=S | inconclusive: 79.4 µM [inhibitor, single point] | 
30 | COC(=O)c1ccccc1N=Cc1c(O)[nH]c(=S)[nH]c1=O | inconclusive: 89.1 µM [inhibitor, partial curve, poor fit] | 
31 | CCCCC(=O)N/N=C/c1c(O)n(-c2ccccc2)c(=O)[nH]c1=O | inconclusive: 89.1 µM [inhibitor, single point] | 
32 | Cc1ccc(-n2c(-c3ccc([N+](=O)[O-])cc3)nc3ccccc3c2=O)cc1 | inactive | 
33 | O=C1OCCN1P(=O)(c1ccccc1)c1ccccc1 | inactive | 
34 | C=C(C)c1cccc(C(C)(C)NC(=O)NC2CN3CCC2CC3)c1 (stereo not given) | inconclusive: 50.1 µM [inhibitor, partial curve] | 
35 | CCC[N+]12CCC(CC1)C(=C(c1ccccc1)c1ccccc1)C2 | inactive | 
36 | O=C1/C(=C\c2ccccc2)C[C@@]2(O)[C@H]3Cc4ccc(O)c5c4[C@@]2(CCN3CC2CC2)[C@H]1O5 | inconclusive: 31.6 µM [inhibitor, single point] | 
37 | COC(=O)C[C@]1(C(=O)OC)CN(C#N)N(c2ccc(Cl)cc2)C12c1ccccc1-c1ccccc12 | inactive | 
38 | Cc1nn(-c2ccccc2)c2c1C(c1ccc3c(c1)OCO3)SCC(=O)N2 (stereo not given) | inconclusive: 89.1 µM [inhibitor, single point] | 
39 | O=C(N/N=C\C1C(=O)NC(=S)N(c2ccccc2)C1=O)c1ccc(O)cc1 (stereo not given) | active: 8.91 µM | 
40 | O=c1ccc2cc(O[C@H]3OC(CO)C(O)C(O)C3O)c(O)cc2o1 (stereo not given in full) |  | inactive: -5.7% [at 2.33 µM] and inactive: -18.1% [at 2.33 µM]
41 | CCCOP(=O)(OCCC)C(NC(=O)c1cc(OC)c(OC)c(OC)c1)c1ccccc1 (stereo not given) | inactive | 
42 | Cc1ccc(-c2nc(S(=O)(=O)c3ccccc3)c(SCC(=O)NC3CCCCC3)o2)cc1 | inconclusive: 5.01 µM [inhibitor, full curve, poor fit] | 
43 | CC(=O)c1ccccc1NC(=O)C1C2CCC(O2)C1C(=O)O (stereo not given) |  | inconclusive: -59.1% [inhibitor]
44 | O=C(Cn1cc(C(=O)c2ccccc2)c2ccccc21)NCc1ccco1 | inconclusive: 79.4 µM [inhibitor, partial curve, poor fit] | 

Row | Structure (SMILES) | Potency | activity, negative = inhibition
45 | S=c1[nH]nc(-c2ccn[nH]2)n1-c1ccccc1Cl | active: 3.16 µM | 
46 | Cc1c(OCC(F)(F)F)ccnc1CS(=O)c1nc2ccccc2[nH]1 (stereo not given) | active: 282 nM and active: 6.7 µM | 
47 | CCC(=NCCO)c1c(O)n(-c2ccccc2)c(=O)[nH]c1=O |  | inactive: 17.8% [at 2.33 µM]
48 | Cc1nn(Cc2ccccc2)c2c1C(c1ccco1)C(C#N)=C(N)O2 (stereo not given) | inconclusive: 2.51 µM [inhibitor, partial curve, poor fit] | 
49 | COC(=O)C(c1ccccc1)N1CCCCCC1 (stereo not given) | inconclusive: 28.2 µM [inhibitor, single point] | 
50 | CN1CCC(O)(c2ccccc2)C(C(=O)c2ccccc2)C1 (stereo not given) | inconclusive: 25.1 µM [inhibitor, single point] | 
51 | COP(=O)(OC)c1nc(-c2cccc3ccccc23)oc1N1CCCCC1 | inconclusive: 79.4 µM [inhibitor, single point] | 
52 | CS(=O)(=O)NNP(=O)(NNS(C)(=O)=O)NC(=O)c1ccccc1 | active: 56.2 µM | 
53 | COc1ccc(CCNc2nccn(-c3ccc(C)c(C)c3)c2=O)cc1OC | inconclusive: 39.8 µM [inhibitor, single point] | 
54 | C/C(=N\Nc1ccccc1)c1c(O)n(-c2ccccc2)c(=O)[nH]c1=O | active: 50.1 µM | 
55 | CC(=Nc1ccccc1N)c1c(O)n(C)c(=O)n(C)c1=O | inactive | 
56 | CC[N+](C)(CC)CCCOC(=O)C(O)(c1ccccc1)C1CCCCC1 (stereo not given) | inconclusive: 2.24 µM [inhibitor, full curve, poor fit] | 
57 | O=c1[nH]c(=O)n(C2CCCCC2)c(O)c1C=Nc1ccc(N2CCOCC2)cc1 | inconclusive: 5.01 µM [inhibitor, full curve, poor fit] | 
58 | CC(Cc1ccsc1)NCc1cn[nH]c1-c1ccc(F)cc1F (stereo not given) | inconclusive: 89.1 µM [inhibitor, partial curve, poor fit] | 
59 | COc1cc(CN2CCCC(C(=O)c3sccc3C)C2)cc(OC)c1O (stereo not given) | inconclusive: 56.2 µM [inhibitor, partial curve, poor fit] | 
60 | CC(C)[C@@]1(NC(=O)[C@H]2CC3c4cccc5[nH]cc(c45)C[C@H]3N(C)C2)O[C@@]2(O)C3CCCN3C(=O)[C@@H](Cc3ccccc3)N2C1=O (stereo not given in full) | active: 12.6 µM | 
61 | Clc1ccc(OCC#CCN2CCCCCC2)cc1 | inconclusive: 3.98 µM [inhibitor, full curve, poor fit] | 
62 | Cc1oc(-c2cccc(Cl)c2)nc1CN1CCC(C(=O)NCCCN2CCN(c3ccc(F)cc3)CC2)CC1 | inconclusive: 20 µM [inhibitor, partial curve, poor fit] | 
63 | Fc1ccc(C(OCCN2CCN(CCCc3ccccc3)CC2)c2ccc(F)cc2)cc1 | inconclusive: 7.94 µM [inhibitor, partial curve] and inconclusive: 35.5 µM [inhibitor, partial curve] and inconclusive: 37.7 µM [inhibitor, single point] | 
64 | O=C(NC1(C(F)(F)F)Oc2ccc(Cl)cc2O1)N1CCC2(CC1)OCCO2 (stereo not given) | inconclusive: 1.58 µM [inhibitor, full curve, poor fit] | 
65 | N#CC1=C(N)Oc2c(c(=O)sc3ccccc23)C1c1ccncc1 (stereo not given) | inconclusive: 79.4 µM [inhibitor, partial curve, poor fit] | 
